We go through 110 compounds from PubChem BioAssay AID1240 (Sanford-Burnham Center for Chemical Genomics, 2008).

The whole screen tested about 50,000 compounds, of which about 800 (1.6%) showed an effect of 50% or more. The list shows a part of the results.

This experiment has as its target Bcl-2-like protein 10 (Homo sapiens) (UniProt Q9HD36). The experiment can be described thus: TR3 peptide-Bcl-B binding displacers, biochemical primary FP assay, phenotype converters (AID 1240).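 Note: 0% = Bcl-B with tracer peptide and DMSO and 100% = tracer peptide lacking Bcl-B.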 To be noted: GST-Bcl-B / FITC-TR3 peptide fluorescence polarization; stronger effect = higher value; compound at 3.75 mg/L. Background: Polarisation of emitted light reports the rotation of a fluorescent probe.
Sequence of UniProt Q9HD36 (Q9HD36 whole entry, looked up): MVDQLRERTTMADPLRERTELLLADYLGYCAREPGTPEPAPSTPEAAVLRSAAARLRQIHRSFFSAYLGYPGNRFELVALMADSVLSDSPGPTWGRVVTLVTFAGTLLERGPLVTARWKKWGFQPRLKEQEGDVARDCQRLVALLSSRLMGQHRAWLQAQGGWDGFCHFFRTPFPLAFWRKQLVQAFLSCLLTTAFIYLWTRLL
Take `COc1ccc(C)cc1NC(=O)c1c(Cl)cccc1Cl`: the displacement was 2.3%. Then `Cc1cccc(N2C(=O)NC(=O)/C(=C\c3cc(C)n(-c4cccnc4)c3C)C2=O)c1`, with 9%. With `CCCCOC(=O)c1ccc(NC(=O)COc2ccc3c(C)cc(=O)oc3c2)cc1`, the displacement worked out at 28.5%. With `COc1cc(C(=O)Nc2ccc(-c3nc4ccccc4[nH]3)cc2)cc(OC)c1OC`, the displacement came to 10%. As to `CCc1ccccc1NC(=O)CN(c1ccc(OC)cc1)S(=O)(=O)c1ccc(C)cc1`, the displacement is 5%. Take `C=CCn1c(NC(=O)c2ccc(Cl)cc2)nc2ccccc21`: the displacement stood at 10.5%.

For `O=C(Nc1nnc(-c2ccco2)s1)c1ccco1`, the displacement amounted to 34.9%. As to `C=CCc1cc(/C=C2\C(=O)NC(=O)N(c3ccc(Cl)cc3)C2=O)cc(OC)c1OCC(=O)O`, the displacement is -0.6%. `CC1CCC(CC(=O)OCc2ccccc2)C1(C)C` (stereo not given): the displacement is -6%. Then `COc1ccc(C2CC(c3ccc([N+](=O)[O-])cc3)=NN2)cc1` (stereo not given), with 6.1%; and `C=CCn1c(C)c(C(C)=O)c(N2CCCC2)nc1=S`, with 2.1%. Turning to `O=[N+]([O-])c1ccc(S(=O)(=O)N(CCO)CCO)cc1`, the displacement was -7.3%. Take `CCOC(=O)C1=C(O)/C(=C/c2cccnc2)SC1=Nc1ccc([N+](=O)[O-])cc1`: the displacement is 55.2%.

As for `COc1ccc(C(=O)c2ccc(OC)c3cccc(O)c23)cc1OC`, the displacement is -3.7%. With `S=C(NCCOCCOCCNC(=S)Nc1ccccc1)Nc1ccccc1` the figure was 11.3%. As to `COc1cc(/C=C2/C=C(c3ccccc3)OC2=O)ccc1C`, the displacement was -4.5%. `CC1=Nc2cc([N+](=O)[O-])ccc2NC(=O)C1`: the displacement came to 2.1%.

Regarding `CC(C(=O)NCc1ccncc1)N1C(=O)c2ccccc2C1=O` (stereo not given), the displacement is -2.3%. Then `Cc1cc(C)cc(CSCC(=O)Nc2cc(Cl)ccc2Cl)c1`, with -7.2%; and `CCOc1ccccc1N1CCN(C(=O)CCc2ccccc2)CC1`, with -4.4%; and `O=C1N/C(=N/N=C/c2cccs2)SC1Cc1ccc(F)cc1` (stereo not given), with -13.9%. For the compound `Cc1cc(C)nc(SCc2ccc(Cl)cc2)n1`, the displacement was -5.9%. In the case of `Cc1sc(NC(=O)Nc2ccccc2)nc1-c1ccccc1`, the displacement was -8%. With `O=C(NCc1ccco1)/C(=C/c1cccc2ccccc12)NC(=O)c1ccccc1` the figure was -6%; with `CC(C)c1ccc([N+](=O)[O-])cc1S(=O)(=O)N1CCN(c2ccccc2)CC1`, -4.7%. As to `COc1cc(NC(=O)COc2ccc(-c3ccc(C)cc3)cc2)c(OC)cc1Cl`, the displacement was -3.8%. With `CC(C)(C)c1ccc(OCC(=O)Nc2ccccc2C(=O)Nc2ccc(C(=O)O)cc2)cc1` the figure was 11%; with `CCN(CC)c1ccc(NC(=O)c2ccc(-c3ccc([N+](=O)[O-])cc3)o2)cc1`, -1.5%; with `COc1ccc(CNc2ccc(C)c(C)c2)c(OC)c1C`, 11.8%. Then `O=C1CC(Sc2ccc3ccccc3c2)C(=O)N1c1ccccc1` (stereo not given), with -2.2%; and `CC(C)c1ccc(N2C(=O)NC(=O)/C(=C/c3ccc(O)cc3)C2=O)cc1`, with -14%.

For the compound `COc1ccc(C2=NN(C(=O)CCC(=O)O)C(c3ccc(Br)cc3)C2)cc1` (stereo not given), the displacement came to 4.5%. For the compound `CCOC(=O)c1ccc(-c2ccc(/C=C3\C(=O)N(c4ccc(S(N)(=O)=O)cc4)N=C3C)o2)cc1`, the displacement turned out to be 15.7%. Take `O=C(/C=C/c1ccco1)NCC1CCCO1` (stereo not given): the displacement was -0.8%. As for `NS(=O)(=O)c1cccc(NC(=O)/C=C/c2cccc([N+](=O)[O-])c2)c1`, the displacement is -4.5%.

Consider `CCc1cccc(C)c1NC(=O)C1C2CCC(O2)C1C(=O)O` (stereo not given), for which the displacement was -8.3%. With `O=S(=O)(Cc1ccccc1)N1CCN(c2cccc(Cl)c2)CC1` the figure was 7.1%; with `COc1cccc(OCCOc2ccccc2/C=C2/SC(=S)N(c3ccccc3)C2=O)c1`, 11.4%; with `C/C(CC(=O)Nc1ccc(Cl)c(C(F)(F)F)c1)=N\NC(=O)c1cnccn1`, -39.5%. Regarding `CCOc1ccc(NC(=O)/C=C/c2ccccc2)cc1`, the displacement turned out to be 13.2%. As for `CN1C(=O)/C(=N/OC(=O)c2ccc(Br)cc2)c2ccccc21`, the displacement is -11%. As for `NC(=O)c1c(NC(=O)/C=C/c2ccccc2)sc2c1CCC2`, the displacement was -3.5%. As to `O=C(O)c1c(Cl)c(C(=O)O)c(C(=O)O)c(Cl)c1C(=O)O`, the displacement was -2.4%. Then `CC(C)CN1C(=O)c2ccc(C(=O)Nc3ccc(O)cc3C(=O)O)cc2C1=O`, with 10.9%; and `C=CCc1cccc(/C=N/NC(=O)C(C)Nc2ccc(Br)cc2)c1O` (stereo not given), with -13.2%.

`O=C(/C=C\Nc1ccccn1)c1ccc2c(c1)OCO2`: the displacement amounted to 21.6%. `Nc1ccc[n+](CC(=O)c2ccccc2)c1`: the displacement was found to be 16.1%.

Turning to `CC(C)C(=O)N/N=C1/CC2CCC1(C)C2(C)C` (stereo not given), the displacement was -53.6%. For `CC(C)CNC(=O)c1ccc(I)cc1`, the displacement worked out at 9.1%. Take `CCC(=O)c1ccc(N2CCC(C)CC2)c(F)c1`: the displacement was -4.2%.

With `O=C(COC(=O)C1CCCN1C(=O)OCc1ccccc1)c1ccc(-c2ccccc2)cc1` (stereo not given), the displacement was 11.7%. With `CC(C(=O)N1c2ccccc2Sc2ccc(C(F)(F)F)cc21)N1C(=O)c2ccccc2C1=O` (stereo not given) the figure was 2.2%. Take `COc1ccc(C=NCC2OCCc3ccccc32)c(OC)c1` (stereo not given): the displacement is 12.7%. On to `CCOc1cccc(/C=N\NC(=O)Cc2cccn2C)c1O`, for which the displacement was -33.2%.

On to `COc1cccc(N2C(=O)c3ccc(C(=O)Nc4ccc(Br)cc4C(=O)O)cc3C2=O)c1`, for which the displacement was -7.7%.

`CCc1ccc2oc(-c3ccc(C)c(N)c3)nc2c1`: the displacement is 0.4%. Take `CCC(=O)Nc1ccc(C(=O)Nc2c[nH]c(=O)[nH]c2=O)cc1`: the displacement stood at 4.6%. In the case of `CCc1ccc(OCc2nnc(NC(=O)Nc3ccc(Cl)c(Cl)c3)s2)cc1`, the displacement was 0.8%. Then `Cc1cc(C)nc(NC(=O)CCC(=O)O)c1`, with -15.4%. Then `CCc1ccc(OCC(=O)Nc2ccc(I)cc2Cl)cc1`, with 18.1%; and `O=C(O)c1ccc(-c2nc3sc4c(c3c(=O)[nH]2)CCCC4)cc1`, with -7%.

Consider `O=C(c1ccccc1)c1cc2c(cc1Br)OCCCO2`, for which the displacement was 1.1%.

With `Cc1cc(OCc2nc(-c3ccccc3)no2)cc(C)c1Cl`, the displacement came to 1.9%. Take `CC(C)Oc1ccc2c(-c3ccccc3)cc(=O)oc2c1`: the displacement was 13.7%. As to `Cc1ccccc1N1C(=O)c2ccc(C(=O)O)cc2C1=O`, the displacement was -3.3%. Turning to `Cc1cc(C)nc(SCC(=O)N/N=C/c2ccc(Cl)cc2Cl)n1`, the displacement was 4.5%. With `O=C(Nc1ccccc1Cl)c1ccco1`, the displacement was 9%.

As for `O=c1[nH]c(=O)n(-c2ccccc2)c(O)c1C(c1cccnc1)c1c(O)n(-c2ccccc2)c(=O)[nH]c1=O`, the displacement was -5%. Take `O=C(c1ccc(F)cc1)N1CCN(c2c(Cl)cccc2[N+](=O)[O-])CC1`: the displacement stood at 2.7%. Consider `C/C(=N\Nc1nc(-c2ccc(Br)cc2)cs1)c1nonc1C`, for which the displacement was -8.4%. With `COC(=O)C1=C(C)NC(=O)CC1c1ccc(OC)cc1` (stereo not given), the displacement came out at 6.5%. As for `CC(C)CSc1nnc(-c2ccc(Br)cc2)o1`, the displacement came to 13%. On to `CCOc1ccc(NC(=O)CN(c2ccc(C)c(Cl)c2)S(C)(=O)=O)cc1`, for which the displacement came out at 6.8%.

For `C=CCc1cc(S(=O)(=O)c2ccc(O)c(CC=C)c2)ccc1O`, the displacement was determined as 0.9%.

Consider `COc1ccc(N2C(=O)/C(=C\c3ccsc3)SC2=S)cc1`, for which the displacement turned out to be 11.4%. Take `COc1ccc(O)c(-c2c(-c3ccc(C)cc3)n[nH]c2C)c1`: the displacement came out at 1%. As for `Cc1cc(C)n(-c2nc(N(C)C)nc(N(C)C)n2)n1`, the displacement is -4.6%. On to `CCCOc1ccc(C(=O)NCCN2CCOCC2)c(O)c1`, for which the displacement came to 5.7%. Consider `O=C(CCNc1cccc(C(F)(F)F)c1)c1cccc([N+](=O)[O-])c1`, for which the displacement is -13%. Take `COc1ccccc1C(O)c1cnc(C(C)C)n1C` (stereo not given): the displacement was -8.5%. As to `COc1ccc(N(CC(=O)Nc2ccc(C(C)C)cc2)S(C)(=O)=O)cc1Cl`, the displacement is -3.1%. `O=C1/C(=C/c2c[nH]c3ccccc23)CCC/C1=C\c1c[nH]c2ccccc12`: the displacement is -13.4%. With `CC1=NN(c2ccccc2)C(=O)C1C(c1ccccc1)C(C#N)C#N` (stereo not given), the displacement turned out to be 4.6%.

For `Oc1ccc(/C=N\Nc2cc(N3CCOCC3)nc(N3CCOCC3)n2)c(O)c1`, the displacement was determined as 25%. With `COc1ccc(OC)c(NC(=O)c2ccc([N+](=O)[O-])cc2Cl)c1`, the displacement is -4.7%.

As to `C=C(C)CSc1nc2sc3c(c2c(=O)n1CC(=C)C)CCC3`, the displacement amounted to 4.9%.

In the case of `Cc1ccc(S(=O)(=O)Nc2cc(-c3cccc(C)c3)[nH]n2)cc1`, the displacement worked out at 13.6%. Regarding `COc1ccc(C2Nc3ccccc3C(=O)N2Cc2ccccc2)cc1Cn1nc(C)c([N+](=O)[O-])c1C` (stereo not given), the displacement was found to be 10.6%. Consider `Cc1occc1C(=O)Nc1ccc([N+](=O)[O-])cc1Cl`, for which the displacement was determined as 24.9%. With `COc1ccc2c(c1)CC/C(=C\c1ccccc1)C2=O` the figure was 5.7%; with `Cn1cccc1CN1CCN(Cc2ccncc2)CC1`, -1.4%; with `COc1ccc(NC(=O)C2CC(=O)N(c3ccc(Br)cc3)C2)cc1` (stereo not given), 15.3%.

Take `CCOC(=O)C1=C(c2ccccc2)N=c2s/c(=C\c3ccco3)c(=O)n2C1c1cccc(OC)c1OC` (stereo not given): the displacement worked out at 76.4%. Regarding `O=C(O)c1ccc(/C=N/c2ncn[nH]2)cc1`, the displacement stood at 0.7%. With `C1=CC2CC1CC2CN1CCN(Cc2c[nH]c3ccccc23)CC1` (stereo not given), the displacement is -2.2%.

Consider `CCOc1cc(OCC)cc(C(=O)Nc2cc(Cl)cc(Cl)c2)c1`, for which the displacement stood at 13.4%. With `O=S1(=O)N=C(Oc2cccc3ccccc23)c2ccccc21`, the displacement is -7.8%. Take `CCOC(=O)c1ccc(NC(=O)CN(c2cccc(Cl)c2)S(=O)(=O)c2ccccc2)cc1`: the displacement came to 6.6%. With `COc1cc(NC(=O)c2ccc(C)c([N+](=O)[O-])c2)ccc1NC(=O)c1ccco1`, the displacement is 5.1%. Then `COC(=O)c1sccc1NC(=O)COc1ccc(Cl)cc1`, with -6.5%; and `FC(F)C(F)(F)C(F)(F)C(F)(F)c1cc(-c2ccccc2)n[nH]1`, with 13.9%. For the compound `COc1ccc(CN2CCN(C(=O)CC(C)C)CC2)cc1OCc1ccccc1`, the displacement turned out to be 4%. Turning to `COc1cccc(C2/C(=C(\O)c3ccc(Cl)cc3)C(=O)C(=O)N2CCCn2ccnc2)c1` (stereo not given), the displacement is -5.2%.

With `CCC1=NN2C(=N)/C(=C/c3ccc(-c4ccccc4[N+](=O)[O-])o3)C(=O)N=C2S1`, the displacement was found to be 1.5%. With `Cc1ccc(S(=O)(=O)Nc2cccc3ccccc23)cc1[N+](=O)[O-]`, the displacement is 6.1%.

For `COc1ccc(OC)c(N(CC(=O)O)S(C)(=O)=O)c1`, the displacement is -0.4%. `CC1CC(Nc2ccccc2)c2ccccc2N1C(=O)COc1ccc2ccccc2c1` (stereo not given): the displacement was -18.1%. With `Clc1cccc(C=Nc2ccc(N=Cc3cccc(Cl)c3Cl)cc2)c1Cl` the figure was -14%; with `CCOc1cc(OCC)cc(C(=O)Nc2cccc(S(N)(=O)=O)c2)c1`, 8.5%; with `Cc1ccnc(N2C(=O)c3ccc(C(=O)O)cc3C2=O)c1`, 1.9%.
